{"source": "paper PMC3153576", "tested_on": "H4FL, fluorescein-labeled H4(1-20) peptide, unmethylated Arg-3", "assay": "stopped-flow fluorescence", "conditions": "other: stopped-flow fluorescence", "data": [{"substance": "Recombinant His-tagged rat PRMT1 (sequence not shown)", "values": [{"measurement": "kobs of association at 2 μM PRMT1", "result": "469 ± 10", "unit": "s^−1 at 2 μM PRMT1"}]}]}
